“And” between values parts separate entries of the source, which are not always exact repeats. Equal values may be shown once. The whole screen tested about 150,000 compounds, of which about 540 (0.36%) showed an effect of 50% or more. This is one part of the list.

The values that follow come from ChEMBL document CHEMBL4888484, “Replenishing the malaria drug discovery pipeline: Screening and hit evaluation of the MMV Hit Generation Library 1 (HGL1) against asexual blood stage Plasmodium falciparum ,using a nano luciferase reporter read-out” (2022).

The assay has as its system Plasmodium falciparum. Put plainly: Primary screen in NF54 nanoGlo assay, in single point, at 2uM, 72h; a lower Z score goes with more inhibition. Type of assay: functional, Erythrocyte. The note with it: timepoint 72 hour.

For the molecule `COC1(c2nccn2C)CN(C(=O)c2scnc2C(C)C)C1`, the “% Inhibition” value was 18% and the Z score is -2.06.
Take `Cc1cccc(OCC(=O)Nc2cc(-c3noc(C)n3)sc2C)c1`: the “% Inhibition” value is -14% and the Z score stood at 2.32.
`OC1(Cc2nc(-c3cc4ccccc4o3)no2)CCCC1`: the “% Inhibition” value is -6% and the Z score is listed as 0.86.
On to `Cc1cnc(CNC(=O)c2cc3cccc(Cl)c3n2C)cn1`, for which the “% Inhibition” value is 4% and the Z score is recorded as -0.53.
Regarding `Cc1cc(C(=O)N2CCc3onc(-c4cccc5ccccc45)c3C2)[nH]n1`, the “% Inhibition” value was -19% and the Z score is reported as 3.97.
As to `O=C([C@@H]1Cc2ccccc2S(=O)(=O)N1)N1CCc2[nH]cnc2C1`, the “% Inhibition” value is -6% and the Z score was 0.98.
Regarding `Cc1ccc(=O)n(Cc2ccc3c(c2)CCC3)n1`, the “% Inhibition” value turned out to be 28% and the Z score was -3.19.
In the case of `Cc1nc(N(C)C)ncc1C(=O)N1C[C@H](O)CO1`, the “% Inhibition” value was 10% and the Z score is listed as -0.93.
As for `Cc1onc(C(=O)N2CCC3(CC2)CC[C@]3(C)O)c1CN1CCCCC1`, the “% Inhibition” value turned out to be 5% and the Z score is given as -0.65.
As for `Cn1nc(C2CC2)nc1CN1CCO[C@@H](Cn2cccn2)C1`, the “% Inhibition” value was determined as 0% and the Z score turned out to be 0.05.
On to `Cc1ccc(Cn2nc(CC(N)=O)nc2Cn2nc(C)ccc2=O)cc1`, for which the “% Inhibition” value is reported as -3% and the Z score came out at 0.47.
The like results for `Cc1cc(Cl)ccc1OCCOCCN(C)CCO` were, in that order, 0% and 0.04.
As to `O=C(c1n[nH]c2c1COCC2)N1CCO[C@H](c2ccccc2)C1`, the “% Inhibition” value is recorded as -9% and the Z score worked out at 1.8.
Consider `CC(C)c1nc(-c2cc3ncc(CCO)cn3n2)n(-c2ccccn2)n1`, for which the “% Inhibition” value is listed as -10% and the Z score came out at 1.
As to `OC(c1ccccc1)c1ncnn1CC1(O)CCCOC1` (centres undefined), the “% Inhibition” value worked out at 3% and the Z score is recorded as -0.4.
`COc1ccnc(CNC(=O)N[C@H](C)C2CCCc3ccccc32)c1F` (some centres undefined): the “% Inhibition” value is -8% and the Z score is 0.76.
As for `Cc1nc(C(=O)NC[C@H](C)C2CCCCC2)n(C)n1`, the “% Inhibition” value was -9% and the Z score is 1.07.
On to `CC(O)CNC(CCCNC(=O)OC(C)(C)C)c1ccccc1` (centres undefined), for which the “% Inhibition” value is given as -9% and the Z score is reported as 1.45.
Turning to `Cn1nc(-c2ccsc2)cc1NC(=O)N1C2CCC1CC1(C2)CC1(F)F` (centres undefined), the “% Inhibition” value is listed as -4% and the Z score amounted to 0.73.
For the molecule `NC(=O)N1CCC[C@H](CNC(=O)Cc2cc(-c3ccccc3)on2)C1`, the “% Inhibition” value was -8% and the Z score is 0.92.
In the same order, the values of `CC(C)(O)CN1CCN(C(=O)CCNC(=O)C(C)(C)C)CC1` are 4% and -0.45.
In the same order, the values of `CN(CCn1ccnc1)c1cc([C@H]2CCOC2)nc(N)n1` are -14% and 1.58.
In the case of `Cc1nc([C@@H]2COCCN2Cc2ccc3nonc3c2)no1`, the “% Inhibition” value is -5% and the Z score was 0.97.
For `CCC(=O)C(=O)N1CC(=O)N(c2ccccc2-c2ccccc2)C[C@@H]1Cc1ccccc1`, the “% Inhibition” value was determined as 10% and the Z score is recorded as -1.33.
As to `O=S1(=O)CC[C@H](Nc2nc3ccc(Cl)cc3s2)C1`, the “% Inhibition” value turned out to be 1% and the Z score is -0.15.
As for `Cc1ccc(CNC(=O)CNC(=O)OCC(F)(F)F)n1C`, the “% Inhibition” value is -4% and the Z score turned out to be 0.62.
With `CCC(C)C(=O)NCC(c1ccsc1)N(C)C` (centres undefined), the “% Inhibition” value is recorded as -6% and the Z score stood at 1.2.
In the same order, the values of `CCc1c(C)cc(C(=O)N(C)CCn2cccn2)c(=O)n1C` are 12% and -1.63.
For `CCC(CC)NCc1cccc(OC)c1OC`, where the note is “2 µM”, the “% Inhibition” value was -6% and -2%; the Z score is 0.9 and 0.41.
As to `Cn1nccc1C(=O)NCCCn1cc(Cl)cn1`, the “% Inhibition” value is -18% and the Z score was 1.95.
`Cc1cccnc1CNC(=O)c1cccc(S(=O)(=O)N[C@H]2CCOC2)c1`: the “% Inhibition” value came out at 1% and the Z score is -0.2.
With `C[C@H](Nc1ncc(C(F)(F)F)cc1Cl)C(N)=O`, the “% Inhibition” value was -10% and the Z score was 1.96.
The like results for `CN(C)[C@H]1CN(S(=O)(=O)c2ccc(C#N)cc2)CC12CCOCC2` were, in that order, -11% and 2.19.
Regarding `Cc1cc(C(=O)Nc2c(-c3cnn(C)c3)nc3n2CCCC3)ns1`, the “% Inhibition” value is reported as -4% and the Z score is listed as 0.41.
Consider `CN(Cc1ccccc1)c1ncc2c(n1)CC(C)(C)C[C@@H]2NC1CCOCC1`, for which the “% Inhibition” value is recorded as -21% and the Z score amounted to 1.82.
For the molecule `CC(NC(=O)N1CCC(C(N)=O)CC1)C1CC1c1ccccc1` (centres undefined), the “% Inhibition” value is given as -12% and the Z score is listed as 1.9.
As to `O=C(CN1C(=O)c2ccccc2C1=O)N1CCC(c2ccccc2)=N1`, the “% Inhibition” value was -4% and the Z score was 0.57.
In the same order, the values of `O=C(Nc1nncs1)N(CC(F)(F)F)C1CCCC1` are 24% and -2.74.
Turning to `C[C@@H]1COCCN1Cc1cn(Cc2nccn2CC(F)(F)F)nn1`, the “% Inhibition” value is 0% and the Z score is -0.05.
Consider `CCc1nnc(CNC(=O)C[C@H]2CCCOC2)o1`, for which the “% Inhibition” value is given as -10% and the Z score is recorded as 1.6.
Turning to `CCC[C@H]1CN(Cc2cnc(N3CCCC3)s2)C[C@@H]1NS(C)(=O)=O`, the “% Inhibition” value worked out at 5% and the Z score is on record as -0.91.
Consider `O=C(NC1(c2ccc(F)cn2)CC1)c1ccc(OC(F)F)nc1`, for which the “% Inhibition” value is -4% and the Z score was found to be 0.59.
Consider `C[C@H](Oc1ccccc1F)c1nnc2n1CCCC2`, for which the “% Inhibition” value is on record as -9% and the Z score came out at 1.39.
Turning to `C[C@@H](c1ccc(C(=O)N2CCc3ccccc3C2)o1)N1CCCCC1`, the “% Inhibition” value is recorded as -16% and the Z score is given as 1.57.
For the molecule `O=C(C[C@H]1COCCN1C(=O)CCc1cccnc1)c1ccccc1`, the “% Inhibition” value was determined as 7% and the Z score was -0.93.
`COc1ccc(CNC(=O)N2CC[C@H](Cc3nccs3)C2)nc1`: the “% Inhibition” value was -9% and the Z score is reported as 1.34.
In the same order, the values of `CC(C)n1cnc2ccc(CNC(=O)[C@H]3CCc4nncn4C3)cc21` are 1% and -0.12.
The like results for `CNC(=O)c1nc(CN2C(=O)COc3ccc(F)cc32)no1` were, in that order, 4% and -0.58.
The like results for `O=C(CCN1CCN(c2ccccc2)CC1)NCc1ccc(O)nc1` were, in that order, -16% and 2.31.
Take `C[C@@H](C(=O)NC(C)(C)C)N1CCN(c2nc[nH]n2)CC1`: the “% Inhibition” value is reported as -9% and the Z score came to 1.05.
As for `C#CC(C)(C)OC(=O)Nc1ccccc1`, the “% Inhibition” value is given as -9% and the Z score came to 1.3.
As for `O=C(CCc1ccncn1)N[C@H]1CCN(C(=O)CCc2ccccc2)C1`, the “% Inhibition” value is listed as -9% and the Z score is recorded as 1.18.
The like results for `C[C@@H](C(=O)N(C)C)n1cnc(-c2ccccc2)c1-c1ccsc1` were, in that order, -9% and 1.
Take `O=C1NCC[C@@H]1Nc1cccc(-c2ccc3c(c2)CCO3)c1`: the “% Inhibition” value is -10% and the Z score worked out at 0.91.
For the molecule `O=C(NCCn1cccnc1=O)c1ccc(S(=O)(=O)N2CCOCC2)cc1`, the “% Inhibition” value worked out at 17% and the Z score was -2.2.
As for `CC1(C)CNC(=O)[C@H]1NS(=O)(=O)c1ccc(Cl)s1`, the “% Inhibition” value is on record as 5% and the Z score is on record as -0.51.
In the same order, the values of `N#Cc1ccc(CN2C(=O)C3CCCCC3C2=O)cc1` (centres undefined) are 8% and -0.87.
As to `COc1ccc(C2=C[C@@H](c3ccccc3OC)n3nnnc3N2)cc1`, the “% Inhibition” value is reported as 11% and the Z score is on record as -1.33.
The like results for `Cc1ccsc1CNC(=O)Cn1ncc(=O)c2ccccc21` were, in that order, 6% and -0.84.
Consider `Cc1cccnc1-n1nc(C2CC2)nc1[C@H](C)n1cnc2ccccc21`, for which the “% Inhibition” value is recorded as -10% and the Z score stood at 1.18.
The like results for `CC(C)Cn1cncc1CNc1nc(-c2ccncc2)nc2c1CNC2` were, in that order, -1% and 0.17.
Take `COc1ccc(S(=O)(=O)NCc2ccnc(N3CCN(c4ccc(F)cc4)CC3)c2)cc1Cl`: the “% Inhibition” value was -16% and the Z score is on record as 1.56.
In the same order, the values of `Cc1nn(C)c(C)c1S(=O)(=O)N1CCC(N2CCc3cc(F)ccc32)CC1` are 2% and -0.31.
Turning to `CCO[C@H]1COC[C@@H]1Nc1ccnc2cc(Cl)ccc12`, the “% Inhibition” value was 16% and the Z score is recorded as -2.76.
As for `CCc1c(C)sc2ncnc(N[C@H]3CCOC[C@@H]3OCCO)c12`, the “% Inhibition” value is -9% and the Z score is recorded as 1.65.
`Cc1cc(CNC(=O)N2CCn3ncnc3C2)cc(N2CCCC2)n1`: the “% Inhibition” value is listed as 4% and the Z score was -0.47.
Regarding `CN(CC1CC1)C(=O)CN1CCCN(C(=O)c2cccc(F)c2)CC1`, the “% Inhibition” value was -4% and the Z score is recorded as 0.73.
In the same order, the values of `CC(C)c1nccn1C1CN(C(=O)c2ccc3ccccc3n2)C1` are -17% and 2.09.
For `C[C@@H](NC(=O)c1ccncc1)c1ccc(Cl)c(Cl)c1`, the “% Inhibition” value is given as -3% and the Z score is 0.58.
With `O=C(NCc1ccc(F)cc1)N1CCCN(C2CCC2)CC1`, the “% Inhibition” value is listed as -13% and the Z score was 2.25.
For `CCOC(=O)N1CCC(NC(=O)c2coc(NC(=O)c3cnccn3)n2)CC1`, the “% Inhibition” value was found to be 9% and the Z score is -1.29.
The like results for `CNC(=O)COc1ccc(C[C@H]2CCCS(=O)(=O)C2)cc1` were, in that order, -3% and 0.61.
On to `O=C(Cc1cccc(Cl)c1)N1C[C@@H](CN2CCCCC2)[C@@H](CO)C1`, for which the “% Inhibition” value was found to be 2% and the Z score is listed as -0.28.
Consider `O=C1C[C@H](NC(=O)c2cnc[nH]2)c2ccccc2N1`, for which the “% Inhibition” value was -14% and the Z score was found to be 1.89.
`O=C1C2CC2C(=O)N1CC1CC(F)(F)C1` (centres undefined): the “% Inhibition” value is -23% and the Z score was found to be 2.69.
Take `CN1CCO[C@H](C(=O)N2CCCCCCC2)C1`: the “% Inhibition” value is recorded as -12% and the Z score was found to be 1.65.
In the same order, the values of `CCCCN1C(=O)c2ccc(C(=O)N3CCC[C@H]3C(=O)Nc3nc4ccccc4s3)cc2C1=O` are 8% and -0.74.
The like results for `CN(Cc1nnc(C2CC2)o1)[C@H]1CCCC[C@H]1C(F)(F)F` were, in that order, 17% and -2.1.
As for `CCCS(=O)(=O)N[C@H]1CO[C@@H](CN2CCC(F)(F)C2)[C@@H]1O`, the “% Inhibition” value is 35% and the Z score is reported as -3.95.
For `COC(=O)C1=C(C(=O)OC)SC(=C2C(=S)C(C)(C)N(C(=O)c3ccccc3)c3ccc(OC(=O)c4ccccc4)cc32)S1`, the “% Inhibition” value is reported as -4% and the Z score is recorded as 0.43.
In the same order, the values of `CN(Cc1noc(C2CCC2)n1)C(=O)NCC[C@@H]1CCCN2CCCC[C@H]12` are -2% and 0.38.
For `O=C(Cn1cnc2ccc(Cl)cc2c1=O)NCCCc1ccccc1`, the “% Inhibition” value is recorded as 2% and the Z score was -0.27.
As to `O=C(Cc1ccccc1Cl)N1CCC(C2(c3cccnc3)NC(=O)N(CC3CCCO3)C2=O)CC1` (centres undefined), the “% Inhibition” value is -2% and the Z score came to 0.3.
In the case of `CCc1nc(CC(=O)N2CCCC2(C)C)cs1`, the “% Inhibition” value is listed as -20% and the Z score was determined as 2.76.
Consider `O=S(=O)(N[C@H](CO)CC(F)(F)F)c1ccccc1`, for which the “% Inhibition” value is -7% and the Z score is 1.07.
Take `O=C(O)c1ncsc1Nc1cccnc1`: the “% Inhibition” value is reported as -2% and the Z score came to 0.31.
Take `Cc1ccc(CN(Cc2ccc(F)cc2)C(=O)CN(CC(C)C)C(=O)c2ccccc2C)o1`: the “% Inhibition” value is reported as -10% and the Z score amounted to 1.05.
